{"source": "paper PMC12136788", "binders": {"B1": {"name": "ENSG00000089057:stop:overlap|stop_codon|ENSG00000089057|stop_codon|NA|stop_codon (ssRNA)", "RNA": "GGGAGUUCUACAGUCCGACGAUCAAGGCCUCAGGAAGAGCGACAACAGCCGGAGUUCAGAUGAAGACUCCCAGGCCACGGGAUAGCCUUUGCUGUGCCCUGUGGCCUGGCCGCAGUGAGGCAUGUAUCUGUAGUUCCUUGCUGCAACAGAGGAUUGAGCAUCA"}, "B2": {"name": "chr1:225419324:225419425:-|CDS|ENSG00000143815|msi1|total|mutant (ssRNA)", "RNA": "GGGAGUUCUACAGUCCGACGAUCUUACACCGCAACACAGUACCGCCUUCGUCCAAGAAGAGAAGAAGUCAAAUUAAAAGAAACCGAUUCUAAGGAAGAAAAAUACGUUGCAAAAGAACUGGCAGUGAGAACCUUUGAAGUGACCAACAGAGGAUUGAGCAUCA"}, "B3": {"name": "chr7:98206920:98207021:+|3pUTR|ENSG00000164715|unk|FALSE|unique (ssRNA)", "RNA": "GGGAGUUCUACAGUCCGACGAUCGUUCUGCAUUAAGCCCCAGGUUCUCUUCUGGCUUUGAAAGGGCCCGAGUGCUCCCAGUGUAGCUUCGUCACAUCGUCACGAGCCCCUGUGGUCAUGGGCGACCUCACACCUCCCUCCCUGCAACAGAGGAUUGAGCAUCA"}, "B4": {"name": "chr6:169419968:169421160:-|three_prime_utr|ENSG00000285733|control|control|control (ssRNA)", "RNA": "GGGAGUUCUACAGUCCGACGAUCUGGCAGGAGGGGAGGCGUUUAUGAGAGUCCCCGGUGGGCACAUAUUAAAAAAAGCUAAGUAGAAAAAUCACUGAGAACUCAUAACUGGUCAAUGAGUUCAGGUAGACAAUGAGGGAGGGUCAACAGAGGAUUGAGCAUCA"}, "B5": {"name": "chr7:47276374:47276475:-|3pUTR|ENSG00000136205|msi1|total|mutant (ssRNA)", "RNA": "GGGAGUUCUACAGUCCGACGAUCCUGGGGUUUGGGAAUGUGCUUUGUGAACUCUGCUUUAAAGUGAGGGGCCGAGGAAAACUCCGAAACAGGCAGAGUUGGAAGCAGCCAAAUCACAGUGGGUGUUGUGUGUGUGUGCGUGUGCAACAGAGGAUUGAGCAUCA"}, "B6": {"name": "chrX:155260805:155261229:-|CDS|ENSG00000155961|control|control|control (ssRNA)", "RNA": "GGGAGUUCUACAGUCCGACGAUCUGGUCUUCUCUUAUUUGACAUUACCAACCGCAGGUCCUUCCAGAAUGUCCAUGAGUGGUUAGAAGAGACCAAAGUACACGUUCAGCCCUACCAAAUUGUAUUUGUUCUGGUGGGUCACAACAACAGAGGAUUGAGCAUCA"}, "B7": {"name": "chr11:46383557:46383658:+|3pUTR|ENSG00000110492|msi1_unk|total|mutant (ssRNA)", "RNA": "GGGAGUUCUACAGUCCGACGAUCCCACGCCCUCCCUCUCCCAGGCCCGAGAUGUGACCCACCAGUGCCUUCUGUCUGCUCGUCCGCUUUAAUCAAUCAUGCCCUGCCUUGUCCCUCUCACUCCCCAGCCCCACCCCUAAGUGCCAACAGAGGAUUGAGCAUCA"}, "B8": {"name": "chr17:4897770:4898853:-|three_prime_utr|ENSG00000108556|control|control|control (ssRNA)", "RNA": "GGGAGUUCUACAGUCCGACGAUCUCCUCGGGGCCUACUUCAACCGAGUGCCUGAUCUCCCCUACGCGCCGUGUAUCCAGCCUUAGCUCGCACCGACUUCAAUUUCCCACCCAUCUCCAGUAGGAAAUUGAUUUUGAAAAAGUACAACAGAGGAUUGAGCAUCA"}, "B9": {"name": "chr3:27376575:27376676:-|3pUTR|ENSG00000033867|msi1|total|mutant (ssRNA)", "RNA": "GGGAGUUCUACAGUCCGACGAUCCUAUAUAUAAGAAUAUUGUAUGUCAUGCUGUUUAUGUGUGACUACCGGGUUUUUAAAAGCCGUGUCUGGAGUUUGUAAUGAGCACCGUGGAGACUAUGUAUUUAAUGAAAUGCUCUCUUUCAACAGAGGAUUGAGCAUCA"}, "B10": {"name": "chr10:7163078:7163179:-|3pUTR|ENSG00000198879|unk|total|mutant (ssRNA)", "RNA": "GGGAGUUCUACAGUCCGACGAUCAGAGGUGCCUUUCCGGAAUACGGGGAGUGAAGGAAGGCCGGCAGGCAUCUCCAUGCAACCCGAUGGUUUGUUUGUUUGUUUGUUUGUUUGUUGUUCAUUUUGUUGUGUUUUUUGAGACAGCAACAGAGGAUUGAGCAUCA"}, "B11": {"name": "chr8:143915815:143915916:-|3pUTR|ENSG00000178209|msi1|FALSE|unique (ssRNA)", "RNA": "GGGAGUUCUACAGUCCGACGAUCGCCAGGUGCCUUGGAGGGUCCCAAGCUGGGCCCCAGCCCACCCUCCUGUCUUCCCAGGGUAGCCCGCCUGCCAGUCCUAGCUGCACAGGGCAGCUGGGCCCAACCCUGUCUGUAGAGGGCCAACAGAGGAUUGAGCAUCA"}, "B12": {"name": "chr18:67512643:67512744:-|CDS|ENSG00000171451|unk|total|mutant (ssRNA)", "RNA": "GGGAGUUCUACAGUCCGACGAUCGCCAUGAUGGAUGUGUGGGAUGCACAUUACAAAAUGUUUUGGUUUGAUCAUCAUGGCAACCGUCCCAUGGCCAGUAUACAGGAAGCAGAGCAAGCUGCUGAAUUUAAAAAACGAUGGACUCAACAGAGGAUUGAGCAUCA"}, "B13": {"name": "chr15:41900134:41900198:-|3pUTR|ENSG00000103966|msi1_unk|FALSE|overlapping (ssRNA)", "RNA": "GGGAGUUCUACAGUCCGACGAUCAGGGCACCUGGAGGCAGCAAAGAUUAUCUUAUUUAUUUUAUUUUGUUUUCUGCUAUAUUUAGAGUGGCAAAAAAAUAGAGCAGAGGGUUUCUGCUGUCUCCAGACUGUCUACCAAAGAGACAACAGAGGAUUGAGCAUCA"}, "B14": {"name": "chr10:89738052:89738153:+|CDS|ENSG00000138182|unk|total|mutant (ssRNA)", "RNA": "GGGAGUUCUACAGUCCGACGAUCCUGGAACAACAAAUUGAAAAAUUGCAGGCAGAAGUAAAAGGCUAUAAGGAUGAAAACAACCGACUAAAGGAGAAGGAGCAUAAAAACCAAGAUGACCUACUAAAAGAAAAAGAAACUCUUCAACAGAGGAUUGAGCAUCA"}, "B15": {"name": "ENSG00000198589:be:win_6751|CDS|ENSG00000198589|bound_else_gene|NA|bound_elsewhere_windowed (ssRNA)", "RNA": "GGGAGUUCUACAGUCCGACGAUCUUGCCCACCAACUUCAGAGAUUUGUCCAAGCCAAUAGGAGCUCUGAACCCAAAAAGAGCAGCAUUCUUCGCUGAGCGUUAUGAAUCAUGGGAAGAUGAUCAAGUUCCAAAGUUUCACUAUCAACAGAGGAUUGAGCAUCA"}, "B16": {"name": "chr1:77728514:77728621:-|CDS|ENSG00000077254|unk|FALSE|unique (ssRNA)", "RNA": "GGGAGUUCUACAGUCCGACGAUCAGAUCCGCAAACCAUAACCACUGAGGAGACAAUGGAAGAAGACAAGAGCCAGUCGGAUGUAGAUUUUCAGUCUUGUGAAUCUUGUAGCAACAGUGAUAGAGCAGAAAAUGAAAAUGGCUCCAACAGAGGAUUGAGCAUCA"}, "B17": {"name": "chr3:7579146:7579247:+|CDS|ENSG00000196277|unk|FALSE|unique (ssRNA)", "RNA": "GGGAGUUCUACAGUCCGACGAUCGCCAGAGGGGUUCUCAAGUGUGACAUUACAGAUCUCCAAAUCAUUUGCUCCUUGGGAUAUAGCAUUCUUCUCAUGGUCACAUGUACUGUGUAUGCCAUCAAGACUCGGGGUGUACCCGAGCAACAGAGGAUUGAGCAUCA"}, "B18": {"name": "ENSG00000100242:stop:overlap|stop_codon|ENSG00000100242|stop_codon|NA|stop_codon (ssRNA)", "RNA": "GGGAGUUCUACAGUCCGACGAUCGGGGCCACCCCGAGUACACCUGCAUCUACCGCUUCAGAGUGCAUGGGGAGCCCGCCCACUAGCCCUGCUUACUGGUGCCUGCUGCCAGCCAUCUGGGAGUGGGUGAACAGCACCCCGCCGCAACAGAGGAUUGAGCAUCA"}, "B19": {"name": "chr12:25205306:25205412:-|3pUTR|ENSG00000133703|unk|FALSE|unique (ssRNA)", "RNA": "GGGAGUUCUACAGUCCGACGAUCGUCAUAUCAAACAUUAAAAAUGACCACUCUUUUAAUUGAAAUUAACUUUUAAAUGUUUAUAGGAGUAUGUGCUGUGAAGUGAUCUAAAAUUUGUAAUAUUUUUGUCAUGAACUGUACUACCAACAGAGGAUUGAGCAUCA"}, "B20": {"name": "chr18:55223968:55224079:-|3pUTR|ENSG00000196628|unk|total|mutant (ssRNA)", "RNA": "GGGAGUUCUACAGUCCGACGAUCUAUAAAGCUUUGUUUGUCCCGUGCUCUUUUGCUAUAAAACCGACUGCCGUACACCCCCGCCGGAAAAAAAAAAAACUAAAUUUAAAAAUAAAAAAUAUAUUUGGCUUAUUUUUCGCAGGACAACAGAGGAUUGAGCAUCA"}, "B21": {"name": "chr10:119072878:119073036:-|CDS|ENSG00000107581|unk|total|mutant (ssRNA)", "RNA": "GGGAGUUCUACAGUCCGACGAUCCUUUUAACUCCAUGGGUUAAAUUCCUGUGGGAGUCUUACAGGCAGUGUUUGGACCUUCUCCGAAACAAUUCCCGAGCCGAGCGCCUGUACCAUGAUAUUGCCCAGCAAGGUAAGAUGAGACAACAGAGGAUUGAGCAUCA"}, "B22": {"name": "chr17:48058596:48058697:+|CDS|ENSG00000082641|msi1|FALSE|unique (ssRNA)", "RNA": "GGGAGUUCUACAGUCCGACGAUCCAAUGGCACAGCCAAUGACACAGCAGGCCCAGAGCUGCCUGACCCUUUGGGGGGUCUGUUAGAUGAAGCUAUGUUGGAUGAGAUCAGCCUUAUGGACCUGGCCAUUGAAGAAGGCUUUAACAACAGAGGAUUGAGCAUCA"}}, "note": "This is one part of the list."}
{"target": "T1, UNK ZnF1-6 (called full-length) (human, UniProt Q9C0B0 30-357)", "T1 sequence": "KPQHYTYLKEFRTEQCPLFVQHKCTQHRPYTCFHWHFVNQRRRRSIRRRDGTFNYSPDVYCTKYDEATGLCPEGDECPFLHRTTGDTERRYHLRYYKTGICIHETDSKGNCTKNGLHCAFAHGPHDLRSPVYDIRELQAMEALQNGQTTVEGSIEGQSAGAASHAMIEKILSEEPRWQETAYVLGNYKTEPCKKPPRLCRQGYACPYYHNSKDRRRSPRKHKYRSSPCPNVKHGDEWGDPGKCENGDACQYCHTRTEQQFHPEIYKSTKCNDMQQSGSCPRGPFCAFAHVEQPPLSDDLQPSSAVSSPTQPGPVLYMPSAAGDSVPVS", "experiment": "nsRBNS (natural sequence RNA bind-n-seq); RBNS binding buffer (assumed for nsRBNS): 25 mM Tris pH 7.5, 150 mM KCl, 3 mM MgCl2, 0.01% Triton X-100, 500 ug/ml BSA, 20 U/ml SUPERase-In, 4 C; UNK is unkempt and MSI1 is Musashi-1; names of the RNAs are library labels; protein concentration not given here; high values mean tight binding", "units": {"binding signal": "enrichment R"}}
{"binder": "B1", "binding signal": 1.43}
{"binder": "B2", "binding signal": 0.38}
{"binder": "B3", "binding signal": 1.26}
{"binder": "B4", "binding signal": 1.69}
{"binder": "B5", "binding signal": 0.971}
{"binder": "B6", "binding signal": 0.539}
{"binder": "B7", "binding signal": 1.45}
{"binder": "B8", "binding signal": 0.594}
{"binder": "B9", "binding signal": 0.486}
{"binder": "B10", "binding signal": 0.878}
{"binder": "B11", "binding signal": 1.03}
{"binder": "B12", "binding signal": 0.556}
{"binder": "B13", "binding signal": 0.58}
{"binder": "B14", "binding signal": 0.451}
{"binder": "B15", "binding signal": 0.472}
{"binder": "B16", "binding signal": 0.733}
{"binder": "B17", "binding signal": 0.647}
{"binder": "B18", "binding signal": 0.815}
{"binder": "B19", "binding signal": 0.945}
{"binder": "B20", "binding signal": 0.707}
{"binder": "B21", "binding signal": 0.34}
{"binder": "B22", "binding signal": 0.652}
